Test results published in the supplement of paper PMC11876631.
± gives the standard deviation of the averaged measurements. Laboratory Escherichia coli strains with one amino-acid change in an essential protein, pooled on minimal glucose agar with carbenicillin or gentamicin at twice the control MIC (plus kanamycin and chloramphenicol for the plasmids), 48 h. Fold change of barcode share against drug-free plates; higher = less susceptible. Active = above 20 in both replicates (the paper's putatively resistant). '<' = one read or none on drug, '>' = one read or none on a drug-free plate. Shares are relative, so most strains fall below 1 when a few take over. Listed are strains with at least 15 reads on both drug-free plates, and hits; most hits rest on fewer reference reads. Replicate rank correlation about 0.5. Edits are read from barcodes.

B1: lpxB I26Q (protein)
chain: MTEQRPLTIALVAGETSGDILGAGLQRALKEHVPNARFVGVAGPRMQAEGCEAWYEMEELAVMGIVEVLGRLRRLLHIRADLTKRFGELKPDVFVGIDAPDFNITLEGNLKKQGIKTIHYVSPSVWAWRQKRVFKIGRATDLVLAFLPFEKAFYDKYNVPCRFIGHTMADAMPLDPDKNAARDVLGIPHDAHCLALLPGSRGAEVEMLSADFLKTAQLLRQTYPDLEIVVPLVNAKRREQFERIKAEVAPDLSVHLLDGMGREAMVASDAALLASGTAALECMLAKCPMVVGYRMKPFTFWLAKRLVKTDYVSLPNLLAGRELVKELLQEECEPQKLAAALLPLLANGKTSHAMHDTFRELHQQIRCNADEQAAQAVLELAQ
B2: lpxB L273A (protein)
chain: MTEQRPLTIALVAGETSGDILGAGLIRALKEHVPNARFVGVAGPRMQAEGCEAWYEMEELAVMGIVEVLGRLRRLLHIRADLTKRFGELKPDVFVGIDAPDFNITLEGNLKKQGIKTIHYVSPSVWAWRQKRVFKIGRATDLVLAFLPFEKAFYDKYNVPCRFIGHTMADAMPLDPDKNAARDVLGIPHDAHCLALLPGSRGAEVEMLSADFLKTAQLLRQTYPDLEIVVPLVNAKRREQFERIKAEVAPDLSVHLLDGMGREAMVASDAALAASGTAALECMLAKCPMVVGYRMKPFTFWLAKRLVKTDYVSLPNLLAGRELVKELLQEECEPQKLAAALLPLLANGKTSHAMHDTFRELHQQIRCNADEQAAQAVLELAQ
B3: lpxB V39A (protein)
chain: MTEQRPLTIALVAGETSGDILGAGLIRALKEHVPNARFAGVAGPRMQAEGCEAWYEMEELAVMGIVEVLGRLRRLLHIRADLTKRFGELKPDVFVGIDAPDFNITLEGNLKKQGIKTIHYVSPSVWAWRQKRVFKIGRATDLVLAFLPFEKAFYDKYNVPCRFIGHTMADAMPLDPDKNAARDVLGIPHDAHCLALLPGSRGAEVEMLSADFLKTAQLLRQTYPDLEIVVPLVNAKRREQFERIKAEVAPDLSVHLLDGMGREAMVASDAALLASGTAALECMLAKCPMVVGYRMKPFTFWLAKRLVKTDYVSLPNLLAGRELVKELLQEECEPQKLAAALLPLLANGKTSHAMHDTFRELHQQIRCNADEQAAQAVLELAQ
B4: lpxB V39Q (protein)
chain: MTEQRPLTIALVAGETSGDILGAGLIRALKEHVPNARFQGVAGPRMQAEGCEAWYEMEELAVMGIVEVLGRLRRLLHIRADLTKRFGELKPDVFVGIDAPDFNITLEGNLKKQGIKTIHYVSPSVWAWRQKRVFKIGRATDLVLAFLPFEKAFYDKYNVPCRFIGHTMADAMPLDPDKNAARDVLGIPHDAHCLALLPGSRGAEVEMLSADFLKTAQLLRQTYPDLEIVVPLVNAKRREQFERIKAEVAPDLSVHLLDGMGREAMVASDAALLASGTAALECMLAKCPMVVGYRMKPFTFWLAKRLVKTDYVSLPNLLAGRELVKELLQEECEPQKLAAALLPLLANGKTSHAMHDTFRELHQQIRCNADEQAAQAVLELAQ
B5: lpxB L273Q (protein)
chain: MTEQRPLTIALVAGETSGDILGAGLIRALKEHVPNARFVGVAGPRMQAEGCEAWYEMEELAVMGIVEVLGRLRRLLHIRADLTKRFGELKPDVFVGIDAPDFNITLEGNLKKQGIKTIHYVSPSVWAWRQKRVFKIGRATDLVLAFLPFEKAFYDKYNVPCRFIGHTMADAMPLDPDKNAARDVLGIPHDAHCLALLPGSRGAEVEMLSADFLKTAQLLRQTYPDLEIVVPLVNAKRREQFERIKAEVAPDLSVHLLDGMGREAMVASDAALQASGTAALECMLAKCPMVVGYRMKPFTFWLAKRLVKTDYVSLPNLLAGRELVKELLQEECEPQKLAAALLPLLANGKTSHAMHDTFRELHQQIRCNADEQAAQAVLELAQ
B6: lpxB L273D (protein)
chain: MTEQRPLTIALVAGETSGDILGAGLIRALKEHVPNARFVGVAGPRMQAEGCEAWYEMEELAVMGIVEVLGRLRRLLHIRADLTKRFGELKPDVFVGIDAPDFNITLEGNLKKQGIKTIHYVSPSVWAWRQKRVFKIGRATDLVLAFLPFEKAFYDKYNVPCRFIGHTMADAMPLDPDKNAARDVLGIPHDAHCLALLPGSRGAEVEMLSADFLKTAQLLRQTYPDLEIVVPLVNAKRREQFERIKAEVAPDLSVHLLDGMGREAMVASDAALDASGTAALECMLAKCPMVVGYRMKPFTFWLAKRLVKTDYVSLPNLLAGRELVKELLQEECEPQKLAAALLPLLANGKTSHAMHDTFRELHQQIRCNADEQAAQAVLELAQ
B7: lpxB V39W (protein)
chain: MTEQRPLTIALVAGETSGDILGAGLIRALKEHVPNARFWGVAGPRMQAEGCEAWYEMEELAVMGIVEVLGRLRRLLHIRADLTKRFGELKPDVFVGIDAPDFNITLEGNLKKQGIKTIHYVSPSVWAWRQKRVFKIGRATDLVLAFLPFEKAFYDKYNVPCRFIGHTMADAMPLDPDKNAARDVLGIPHDAHCLALLPGSRGAEVEMLSADFLKTAQLLRQTYPDLEIVVPLVNAKRREQFERIKAEVAPDLSVHLLDGMGREAMVASDAALLASGTAALECMLAKCPMVVGYRMKPFTFWLAKRLVKTDYVSLPNLLAGRELVKELLQEECEPQKLAAALLPLLANGKTSHAMHDTFRELHQQIRCNADEQAAQAVLELAQ
B8: lpxB L273P (protein)
chain: MTEQRPLTIALVAGETSGDILGAGLIRALKEHVPNARFVGVAGPRMQAEGCEAWYEMEELAVMGIVEVLGRLRRLLHIRADLTKRFGELKPDVFVGIDAPDFNITLEGNLKKQGIKTIHYVSPSVWAWRQKRVFKIGRATDLVLAFLPFEKAFYDKYNVPCRFIGHTMADAMPLDPDKNAARDVLGIPHDAHCLALLPGSRGAEVEMLSADFLKTAQLLRQTYPDLEIVVPLVNAKRREQFERIKAEVAPDLSVHLLDGMGREAMVASDAALPASGTAALECMLAKCPMVVGYRMKPFTFWLAKRLVKTDYVSLPNLLAGRELVKELLQEECEPQKLAAALLPLLANGKTSHAMHDTFRELHQQIRCNADEQAAQAVLELAQ
B9: lpxB L273W (protein)
chain: MTEQRPLTIALVAGETSGDILGAGLIRALKEHVPNARFVGVAGPRMQAEGCEAWYEMEELAVMGIVEVLGRLRRLLHIRADLTKRFGELKPDVFVGIDAPDFNITLEGNLKKQGIKTIHYVSPSVWAWRQKRVFKIGRATDLVLAFLPFEKAFYDKYNVPCRFIGHTMADAMPLDPDKNAARDVLGIPHDAHCLALLPGSRGAEVEMLSADFLKTAQLLRQTYPDLEIVVPLVNAKRREQFERIKAEVAPDLSVHLLDGMGREAMVASDAALWASGTAALECMLAKCPMVVGYRMKPFTFWLAKRLVKTDYVSLPNLLAGRELVKELLQEECEPQKLAAALLPLLANGKTSHAMHDTFRELHQQIRCNADEQAAQAVLELAQ
B10: accA M114W (protein)
chain: MSLNFLDFEQPIAELEAKIDSLTAVSRQDEKLDINIDEEVHRLREKSVELTRKIFADLGAWQIAQLARHPQRPYTLDYVRLAFDEFDELAGDRAYADDKAIVGGIARLDGRPVWIIGHQKGRETKEKIRRNFGMPAPEGYRKALRLMQMAERFKMPIITFIDTPGAYPGVGAEERGQSEAIARNLREMSRLGVPVVCTVIGEGGSGGALAIGVGDKVNMLQYSTYSVISPEGCASILWKSADKAPLAAEAMGIIAPRLKELKLIDSIIPEPLGGAHRNPEAMAASLKAQLLADLADLDVLSTEDLKNRRYQRLMSYGYA
B11: lpxC L66D (protein)
chain: MIKQRTLKRIVQATGVGLHTGKKVTLTLRPAPANTGVIYRRTDLNPPVDFPADAKSVRDTMLCTCDVNEHDVRISTVEHLNAALAGLGIDNIVIEVNAPEIPIMDGSAAPFVYLLLDAGIDELNCAKKFVRIKETVRVEDGDKWAEFKPYNGFSLDFTIDFNHPAIDSSNQRYAMNFSADAFMRQISRARTFGFMRDIEYLQSRGLCLGGSFDCAIVVDDYRVLNEDGLRFEDEFVRHKMLDAIGDLFMCGHNIIGAFTAYKSGHALNNKLLQAVLAKQEAWEYVTFQDDAELPLAFKAPSAVLA
B12: lpxC F129A (protein)
chain: MIKQRTLKRIVQATGVGLHTGKKVTLTLRPAPANTGVIYRRTDLNPPVDFPADAKSVRDTMLCTCLVNEHDVRISTVEHLNAALAGLGIDNIVIEVNAPEIPIMDGSAAPFVYLLLDAGIDELNCAKKAVRIKETVRVEDGDKWAEFKPYNGFSLDFTIDFNHPAIDSSNQRYAMNFSADAFMRQISRARTFGFMRDIEYLQSRGLCLGGSFDCAIVVDDYRVLNEDGLRFEDEFVRHKMLDAIGDLFMCGHNIIGAFTAYKSGHALNNKLLQAVLAKQEAWEYVTFQDDAELPLAFKAPSAVLA
B13: lpxC L66P (protein)
chain: MIKQRTLKRIVQATGVGLHTGKKVTLTLRPAPANTGVIYRRTDLNPPVDFPADAKSVRDTMLCTCPVNEHDVRISTVEHLNAALAGLGIDNIVIEVNAPEIPIMDGSAAPFVYLLLDAGIDELNCAKKFVRIKETVRVEDGDKWAEFKPYNGFSLDFTIDFNHPAIDSSNQRYAMNFSADAFMRQISRARTFGFMRDIEYLQSRGLCLGGSFDCAIVVDDYRVLNEDGLRFEDEFVRHKMLDAIGDLFMCGHNIIGAFTAYKSGHALNNKLLQAVLAKQEAWEYVTFQDDAELPLAFKAPSAVLA

What follows are proteins tested against Escherichia coli (laboratory strain) (assay: barcode share on antibiotic plates over drug-free plates; higher = less susceptible). Conditions: antibiotic: carbenicillin; 2× MIC (3.1 µg/mL).
Description: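 A pool of E. coli strains, each edited to carry one amino-acid change in an essential protein, was grown for 48 h on minimal glucose agar with or without antibiotic; strain barcodes were sequenced; mean of two replicates.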

| Protein | fold change of barcode share |
| --- | --- |
| B1 | 0.441 ± 0.016 |
| B2 | 0.3493 ± 0.0026 |
| B3 | 0.266 ± 0.1 |
| B4 | 0.265 ± 0.16 |
| B5 | 0.43 ± 0.013 |
| B6 | 0.539 ± 0.17 |
| B7 | 0.207 ± 0.15 |
| B8 | 0.419 ± 0.02 |
| B9 | 0.372 ± 0.031 |
| B10 | 0.289 ± 0.029 |
| B11 | 0.325 ± 0.035 |
| B12 | 0.512 ± 0.19 |
| B13 | 0.355 ± 0.12 |

Same assay, conditions: antibiotic: gentamicin; 2× MIC (MIC 0.45 µg/mL)

| Protein | fold change of barcode share |
| --- | --- |
| B1 | 0.00914 ± 0.0066 |
| B2 | 0.0039 ± 0.0024 |
| B3 | < 0.0119 |
| B4 | < 0.0133 |
| B5 | 0.00336 ± 0.0019 |
| B6 | 0.00602 ± 0.0064 |
| B7 | 0.876 ± 1.2 |
| B8 | 0.00471 ± 0.0012 |
| B9 | 0.0173 ± 0.011 |
| B10 | < 0.00292 |
| B11 | < 0.0156 |
| B12 | < 0.0125 |
| B13 | < 0.0148 |
